Results are given in words; binding and its absence hold for the method and conditions named. In cells and extracts the contact can be indirect. Some entries that bind do so weakly or less than the wild type. Where a sequence is shown, tags or fusion partners need not be part of it.

To fix the notation:
B1: Myc-tagged CMTM5 (protein, UniProt Q9D6G9 1-156)
chain: MFSAWDRRERPPEEGAAAGLQGFGVDKTFLSSLKGILLETELALTFIIFICFTASISAYMAAALLEFLITLAFLFLCATQYYQRFDRLNWPCLDFLRCLSAIVIFLVVSFAAVTSREGAAIAAFVFGIILVSVFAYDAFKIYRTELMPSTTEGDQQ
B2: Myc-tagged CMTM1 (protein, UniProt F6U6C2 1-303)
chain: MNPASARRESGGDGSRRESRRLTLRPRVLDASSPSDSQAYAASAPPHQGPSVPGTPASQGPSVPGTPASQGPSVPGTPASQGPSVPGTPASQGPSVPGTPSRQQSFIRATPIRQQSFIRAIPSRQRPSVQAIPSSQRPLVHVIPSSQRPSVRATPSSQRPSVRATPSSQRPSCITATSVFCFVIGGAQELFVVIMIQETCIVLFFIIIYLVTLQTTMACIHWPLLDLINSAISTVFLGIVGIVVIGKKNTKDLCYAGGILCLSAAVLCVIDALLFTEKRRNKAKSSLARETKLSATQLRQKQH
B3: Myc-tagged CMTM6 (protein, UniProt Q9CZ69 1-183)
chain: MENGAVYSPTTEAAPGTGRGARSGLAAYFVLGRLPWHRRILKGLQLLLSLLAFICEEVVSECGLCGGLYFFEFVSCSAFLLSLLLLIVYCTPVHDRVDTGKVKSSDFYITLGTGCVFLLASIIFVSTHSGTSAEIAAIVFGFLASSMFLLDFVVMLCEKLRESPLRKPENNAKVEALTEPLNA
B4: Myc-tagged CMTM7 (protein, UniProt Q9ESD6 1-167)
chain: MSHGSGLVRTTCSSGGALGPGQPSEGLLDRVYPLTHGALFKVAQMVTLLIAFICVRSSVPIDYGAHSFFEVVTMCDLIMILIFYLVHLFRFYRVLTCISWPLSELLHYLIGTLLLLIASIVIASKSYNQSGLVAGAIFGFLASFLCLASLWLSYKITCITQSSDASA
B5: Myc-tagged CMTM3 (protein, UniProt Q99LJ5 1-184)
chain: MWPPDAEPEPDPESAHGPRSGRTVPGLRALLPARAFLCSLKGRLLLAESGLSFITFICYVVSSASAFLTVPLLEFLLAVYFLFADAMQLNDKWQGLCWPMMDFLRCVTAALIYFVISITAVAKYSDGAYKAAGVFGFFATIVFAIDFYLIFNEVAKFLKQGDSGNETTAHRTEEENSNSDSDSD
B6: Myc-tagged CMTM8 (protein, UniProt Q9CZR4 1-173)
chain: MEEQQRARSHTVTTTTSSFAENFSTTSSSFAYDREFLRTPPGLLIVAEIVLGLLVWTLIAGTEYFRVPAFGWVMFVAVFYWVLTVFFLIVYITLTYTRIPQVPWTTVGLCFNGSAFVLYFSAAIVDASSVSPEKEGHNFNSWAASSFFAFLVTICYAGNTYFSFIAWRSRTAQ
B7: Myc-CMTM4^1-Tm6 (CMTM4 with its first transmembrane domain replaced by that of CMTM6) (protein, UniProt Q9CZ69 1-67; Q8CJ61 84-208)
chain: MENGAVYSPTTEAAPGTGRGARSGLAAYFVLGRLPWHRRILKGLQLLLSLLAFICEEVVSECGLCGGLYFFEFVSCSAFVVTGVLLILFSLNLHMRIPQINWNLTDLVNTGLSTFFFFIASIVLAALNHKTGAEIAAVIFGFLATAAYAVSTFLAMQKWRVSVRQQSTNDYIRARTESRDVDSRPEIQRLDT
B8: Myc-CMTM4^2-Tm6 (CMTM4 with its second transmembrane domain replaced by that of CMTM6) (protein, UniProt Q8CJ61 1-83; Q9CZ69 68-94; Q8CJ61 111-208)
chain: MRGGEELDGFEGEASSTSMISGASSPYQPTTEPVSQRRGLAGLRCDPDYLRGALGRLKVAQVILALIAFICIETIMECSPCEGLYFFEFVSCSAFLLSLLLLIVYCTPVHMRIPQINWNLTDLVNTGLSTFFFFIASIVLAALNHKTGAEIAAVIFGFLATAAYAVSTFLAMQKWRVSVRQQSTNDYIRARTESRDVDSRPEIQRLDT
B9: Myc-CMTM4^4-Tm6 (CMTM4 with its fourth transmembrane domain replaced by that of CMTM6) (protein, UniProt Q8CJ61 1-147; Q9CZ69 132-183)
chain: MRGGEELDGFEGEASSTSMISGASSPYQPTTEPVSQRRGLAGLRCDPDYLRGALGRLKVAQVILALIAFICIETIMECSPCEGLYFFEFVSCSAFVVTGVLLILFSLNLHMRIPQINWNLTDLVNTGLSTFFFFIASIVLAALNHKTSAEIAAIVFGFLASSMFLLDFVVMLCEKLRESPLRKPENNAKVEALTEPLNA
B10: Myc-CMTM4^3-Tm6 (CMTM4 with its third transmembrane domain replaced by that of CMTM6) (protein, UniProt Q8CJ61 1-110; Q9CZ69 95-131; Q8CJ61 148-208)
chain: MRGGEELDGFEGEASSTSMISGASSPYQPTTEPVSQRRGLAGLRCDPDYLRGALGRLKVAQVILALIAFICIETIMECSPCEGLYFFEFVSCSAFVVTGVLLILFSLNLHDRVDTGKVKSSDFYITLGTGCVFLLASIIFVSTHSGTGAEIAAVIFGFLATAAYAVSTFLAMQKWRVSVRQQSTNDYIRARTESRDVDSRPEIQRLDT
B11: TRAF6 (endogenous, mouse ST2 cells) (enzyme, UniProt P70196 1-530)
chain: MSLLNCENSCGSSQSSSDCCAAMAASCSAAVKDDSVSGSASTGNLSSSFMEEIQGYDVEFDPPLESKYECPICLMALREAVQTPCGHRFCKACIIKSIRDAGHKCPVDNEILLENQLFPDNFAKREILSLTVKCPNKGCLQKMELRHLEDHQVHCEFALVNCPQCQRPFQKCQVNTHIIEDCPRRQVSCVNCAVSMAYEEKEIHDQSCPLANIICEYCGTILIREQMPNHYDLDCPTAPIPCTFSVFGCHEKMQRNHLARHLQENTQLHMRLLAQAVHNVNLALRPCDAASPSRGCRPEDPNYEETIKQLESRLVRQDHQIRELTAKMETQSMYVGELKRTIRTLEDKVAEMEAQQCNGIYIWKIGNFGMHLKSQEEERPVVIHSPGFYTGRPGYKLCMRLHLQLPTAQRCANYISLFVHTMQGEYDSHLPWPFQGTIRLTILDQSEALIRQNHEEVMDAKPELLAFQRPTIPRNPKGFGYVTFMHLEALRQGTFIKDDTLLVRCEVSTRFDMGGLRKEGFQPRSTDAGV
B12: ACT1 (endogenous, mouse ST2 cells) (protein, UniProt Q8N7N6 1-555)
chain: MNRSIPVEVDESEPFPSQLLKPIPEYSPEEELEPPAPNTRNMAPSSLSVLQCPPLKLANHQPVSQQVTCLRAKVLEEGEASFFRRHPELGKDISSCSSGASEPESELGALPPEHRFTLTEKRNRWLGSQLSAASPDTGHESDKSDPSLPNALADSFSGGQEMMPRPRPRPGPHRHRAAPDVPTIDTGYDSQPQDVLGIRQLERPLPLTSSCYLQDLPGPLRSRELPPQFELERYPMNAQLLPPHPSPQAPWNCQYYCPGGPYHHQVPHGHGYPPAAAYQQVLQPALPGQVLPGARARGPRPVQKVILNDSSPQDQEERPAQRDFSFPRLPRDQLYRPPSNGVEAPEESLDLPAELRPHGPQAPSLAAVPRPPSNPLARGTLRTSNLPEELRKVFITYSMDTAMEVVKFVNFLLVNGFQTAIDIFEDRIRGIDIIKWMERYLRDKTVMIIVAISPKYKQDVEGAESQLDEDEHGLHTKYIHRMMQIEFISQGSMNFRFIPVLFPNAKKEHVPTWLQNTHVYSWPKNKKNILLRLLREEEYVAPPRGPLPTLQVVPL

For the first assay, the target named is T1, SF-IL-17RC (murine IL-17RC with C-terminal 2xStrep-3xFlag tag), in ST2 cells (mouse) (UniProt Q8K4C2).
T1 sequence (chain, N-glycosylated (100 kDa and 150 kDa forms)): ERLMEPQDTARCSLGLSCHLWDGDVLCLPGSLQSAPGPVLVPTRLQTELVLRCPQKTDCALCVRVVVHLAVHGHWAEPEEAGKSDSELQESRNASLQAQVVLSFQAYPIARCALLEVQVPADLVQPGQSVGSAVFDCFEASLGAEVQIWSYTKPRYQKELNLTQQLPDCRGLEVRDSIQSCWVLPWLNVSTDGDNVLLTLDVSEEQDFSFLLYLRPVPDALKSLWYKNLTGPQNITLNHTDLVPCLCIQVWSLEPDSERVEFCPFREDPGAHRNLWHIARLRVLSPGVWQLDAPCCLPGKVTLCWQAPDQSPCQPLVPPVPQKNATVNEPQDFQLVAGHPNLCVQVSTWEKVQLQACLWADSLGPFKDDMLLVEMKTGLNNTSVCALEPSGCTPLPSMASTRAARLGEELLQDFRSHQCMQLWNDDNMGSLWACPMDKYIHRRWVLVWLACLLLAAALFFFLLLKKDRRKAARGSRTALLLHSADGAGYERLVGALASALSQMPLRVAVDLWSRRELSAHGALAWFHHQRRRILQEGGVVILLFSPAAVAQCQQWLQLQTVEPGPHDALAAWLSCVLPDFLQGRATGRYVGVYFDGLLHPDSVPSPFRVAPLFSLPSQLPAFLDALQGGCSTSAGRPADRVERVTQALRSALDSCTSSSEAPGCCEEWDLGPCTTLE
Nature of the assay: co-IP; Flag IP from lysates of Cmtm4−/− ST2 cells transduced with Myc-tagged members of the CMTM family (CMTM1–8) together with SF-IL-17RC, immunoblot. On the technique in general: A western blot detects proteins with antibodies after separation by electrophoresis.
B1: the binding result is listed as “no binding”.
B2: the binding result was “no binding”.
Take B3: the binding entry is listed as “no binding”.
For the molecule B4, the binding result is “no binding”.
Regarding B5, the binding entry is “no binding”.
For the molecule B6, the binding result is reported as “no binding”.

The next assay concerns the target T1, SF-IL-17RC (murine IL-17RC with C-terminal 2xStrep-3xFlag tag), in ST2 cells (mouse). Nature of the assay: co-IP; Flag IP from lysates of ST2 cells retrovirally transduced with SF-IL-17RC together with Myc-tagged CMTM4, CMTM6 or chimeric proteins, immunoblot.
For the molecule B3, the binding result was “no binding”.
B7: the binding entry was “no binding”.
B8: the binding entry is recorded as “no binding”.
For the molecule B9, the binding result is on record as “binds”.
As for B10, the binding entry is given as “binds”.

A further assay has as its target T2, Strep-Flag-tagged mouse IL-17A (mouse) (UniProt Q62386).
T2 sequence: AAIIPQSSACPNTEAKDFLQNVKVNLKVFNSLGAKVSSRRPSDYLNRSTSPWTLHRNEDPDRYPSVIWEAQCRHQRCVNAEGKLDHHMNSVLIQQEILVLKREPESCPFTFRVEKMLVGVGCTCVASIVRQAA
Nature of the assay: co-IP; ST2 cells (wild-type; Cmtm4−/− beside them) stimulated with SF-IL-17A (500 ng/ml, 15 min) or left unstimulated with SF-IL-17A added post lysis; anti-FLAG M2 agarose IP from 1% DDM lysates, immunoblot; only the target purified.
On to B11, for which the binding result is listed as “binds”.
Consider B12, for which the binding result was “binds”.

For the origin of these results see publication PMC9663306.
